About 450 (0.94%) of roughly 48,000 compounds were called active. Not shown: some 19% with an inconclusive outcome. Calls come from the whole dose curve; as a rule, active = well fitted inhibition curve with a large enough effect; inconclusive = small, poorly fitted or top-dose-only effect; inactive = no such curve, though single readings can be large or run the other way. The list shows a part of the results.

A short description of the assay: Primary qHTS for Identification of Small Molecule Inhibitors of Huntingtin Promoter Activity. Note: nearly all actives have a fitted effect of over 50% in size. The settings on record: HEK293 HTT promoter firefly luciferase reporter (activity 0% = vehicle and -100% = no light), 24 h; series mostly up to 57.5 µM; activity change, negative = inhibition: at the top concentration. The procedure, abridged: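 Firefly luciferase signal from promoter-reporter HEK293 cells was scaled between vehicle (0%) and zero RLU (-100%). Compounds were tested at final concentrations of up to 57.5 uM over 24 h at 37 degrees C. PTC124 at 50 uM final served as control inhibitor.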
As to `COc1ccc2c(c1)CCc1sc(NC(=O)c3cccc(Br)c3)nc1-2`, the “activity change, negative = inhibition” value is inactive: -27.3%.

As for `Cc1cc(C)c(S(=O)(=O)NCC(c2ccco2)N2CCOCC2)c(C)c1` (configuration not stated), the “activity change, negative = inhibition” value is inactive: -21.6%.

For `CCc1nc2c(cnn2-c2ccc(C)cc2)c(=O)n1Cc1ccccc1`, the “activity change, negative = inhibition” value is inactive: -24.5%.

On to `CCOC(=O)N1CCc2c(sc3c2c(=O)n(Cc2ccccc2)c(=O)n3Cc2cccc(C)c2)C1`, for which the “activity change, negative = inhibition” value was inactive: -11%.

On to `Cc1ccc(-c2onc(C)c2C)cc1S(=O)(=O)NCc1ccc(N(C)C)cc1`, for which the “activity change, negative = inhibition” value is inactive: -23.8%.

`COc1ccc(NC(=O)c2cc(C)nc3c2c(C)nn3-c2ccc(C)cc2)cc1OC`: the “activity change, negative = inhibition” value was inactive: -27.1%.

`COc1cccc(Cn2c(=O)n(-c3cccc(Cl)c3)c(=O)c3c4c(sc32)CN(C(C)=O)CC4)c1`: the “activity change, negative = inhibition” value was inactive: -37.8%.

Take `C=CCC(CC=C)(CNC(=O)C(=O)Nc1ccc(C)cc1)c1ccccc1`: the “activity change, negative = inhibition” value was inactive: 34.8%.

Consider `COc1ccccc1-c1nnc(C2CCN(C(=O)c3cccc(C)c3)CC2)o1`, for which the “activity change, negative = inhibition” value was inactive: -15.8%.

Take `CCn1c(=O)cc(OCC(=O)NCc2ccccc2OC)c2ccccc21`: the “activity change, negative = inhibition” value was inactive: -13.8%.

Consider `CC1=C(C)C(=O)C(C(CCCCCC(=O)O)c2ccccc2)=C(C)C1=O` (configuration not stated), for which the activity change, negative = inhibition entry is “inactive”.

On to `Cc1c2cnn(CC(=O)N3CCN(c4ccccc4)CC3)c(=O)c2c(C)n1Cc1ccccc1Cl`, for which the “activity change, negative = inhibition” value is inactive: 2.92%.

In the case of `CSc1ncc(Cl)c(C(=O)Nc2ccc(S(=O)(=O)Nc3nccc(C)n3)cc2)n1`, the “activity change, negative = inhibition” value was inactive: -11.2%.

Take `CCCCN(C)CCCNC(=O)CN1N=C(c2ccc(OC)cc2)CCC1=O`: the “activity change, negative = inhibition” value was inactive: -4.88%.

`CC(=O)c1ccc(NC(=O)CCc2c(C)nc3c(c2C)c(=O)n(C)c(=O)n3C)cc1`: the “activity change, negative = inhibition” value was inactive: 8.55%.

Turning to `Cc1ccc(CCNC(=O)c2ccc3[nH]c(C)c(C)c3c2)cc1`, the “activity change, negative = inhibition” value is inactive: -14.7%.

Turning to `O=C(NCc1ccccc1F)c1sc2ncccc2c1-n1cccc1`, the “activity change, negative = inhibition” value is inactive: -22.6%.

For `O=C(O)Cn1cnnn1`, the “activity change, negative = inhibition” value is inactive: 2.57%.

In the case of `COC(=O)CN1C(=O)C(C)(C)c2cc(S(=O)(=O)Nc3ccc(Br)cc3F)ccc21`, the “activity change, negative = inhibition” value is inactive: -22.8%.

As to `Cc1[nH]c2ccc(Br)cc2c1CCNC(=O)c1cc2ccccc2oc1=O`, the “activity change, negative = inhibition” value was inactive: -2.75%.

`CCN(CC)c1ccc(NC(=O)CN2CCN(c3ccccc3F)CC2)cc1`: the “activity change, negative = inhibition” value is inactive: -16.6%.

In the case of `CCOc1ccc(C2=NC(c3cccs3)=Nc3ccc(CC)cc3N2)cc1OCC`, the “activity change, negative = inhibition” value is inactive: 11%.

Consider `CC(=O)N1CCCc2cc(S(=O)(=O)N3CCCC(C(=O)Nc4ccc(C)cc4C)C3)ccc21` (configuration not stated), for which the “activity change, negative = inhibition” value was inactive: -7.07%.

For `CNCCc1ccccn1`, the “activity change, negative = inhibition” value was inactive: 1.98%.

Regarding `COc1ccc(-n2nc3cc(C)c(NC(=O)c4ccc(-c5ccc(Br)cc5)o4)cc3n2)cc1`, the “activity change, negative = inhibition” value was inactive: 35.5%.

Consider `CC(=O)c1cccc(-n2c(=O)c3c4c(sc3n(Cc3cccc(C)c3)c2=O)CN(C(C)=O)CC4)c1`, for which the “activity change, negative = inhibition” value is inactive: -10.3%.

Consider `Cc1cccc(NC(=O)CN2C(=O)C(c3ccccc3)=NC23CCC(C)CC3)c1` (configuration not stated), for which the “activity change, negative = inhibition” value was inactive: -24.6%.

As for `Cc1cc(C)n(CCc2nc3c4ccccc4nc(N4CCN(c5cccc(C)c5C)CC4)n3n2)n1`, the “activity change, negative = inhibition” value was inactive: -4.78%.

In the case of `COc1ccc(C(=O)Nc2ccc3c(c2)CCCN3S(=O)(=O)c2ccc(C)cc2)c(OC)c1`, the “activity change, negative = inhibition” value was inactive: 8.14%.

In the case of `CCc1ccc(S(=O)(=O)c2cn(C)c3cc(N4CCCC4)c(F)cc3c2=O)cc1`, the “activity change, negative = inhibition” value is inactive: -8.72%.

In the case of `COC(=O)c1nnn(-c2ccc(Br)cc2)c1C(=O)OC`, the “activity change, negative = inhibition” value was inactive: -11.4%.

As to `Cc1cc(C)cc(C(=O)NCC(c2ccc(N(C)C)cc2)N2CCCC2)c1` (configuration not stated), the “activity change, negative = inhibition” value is inactive: -7.37%.

With `CCOC(=O)CC(NC(=O)CCc1c(C)nc2ncnn2c1C)c1ccc(C)cc1` (configuration not stated), the “activity change, negative = inhibition” value was inactive: -3.25%.

`CCOc1ccc(C(=O)NCCc2csc(-c3cccc(F)c3)n2)cc1OCC`: the “activity change, negative = inhibition” value was inactive: -36.4%.

Consider `COc1cccc(NC(=O)C2CCCN(S(=O)(=O)c3cccc4nonc34)C2)c1` (configuration not stated), for which the “activity change, negative = inhibition” value is inactive: -8.77%.

`Cc1cn2c(=O)c(S(=O)(=O)Nc3ccc(F)cc3F)c(C)nc2s1`: the “activity change, negative = inhibition” value is inactive: -6.34%.

With `O=C(NCc1ccc(Cl)cc1)c1ccc(Cn2c(=O)c3cccn3c3cccnc32)cc1`, the “activity change, negative = inhibition” value is inactive: -5.98%.

On to `Oc1ccccc1Nc1nc2ccccc2n2nnnc12`, for which the “activity change, negative = inhibition” value was inactive: 27.3%.

As for `COc1ccc(S(=O)(=O)N2CCN(Cc3nc4ccc(C)cc4o3)CC2)cc1`, the “activity change, negative = inhibition” value is inactive: -13.7%.

Consider `Cc1cnc(Nc2ccc(OCCN3CCCC3)cc2)nc1Nc1cccc(S(=O)(=O)NC(C)(C)C)c1`, for which the “activity change, negative = inhibition” value is inactive: -5.17%.

With `O=C1CCc2cc(S(=O)(=O)NC(C(=O)Nc3cccc(F)c3)c3ccccc3)ccc2N1` (configuration not stated), the “activity change, negative = inhibition” value was inactive: 7.79%.

In the case of `COCCCNC(=O)c1ccc2c(c1)N(Cc1ccccc1F)C(=O)c1ccccc1S2=O` (configuration not stated), the “activity change, negative = inhibition” value is inactive: -15.7%.

Regarding `COc1ccc(-c2nnc(SCC(=O)Nc3ccc(C)c(C)c3)s2)cc1`, the “activity change, negative = inhibition” value was inactive: -16.4%.

On to `CCc1ccccc1NC(=O)CCCN1C(=O)CCn2nc(-c3cn(C)c4ccccc34)cc21`, for which the “activity change, negative = inhibition” value was inactive: -5.74%.

Turning to `COc1cccc(NC(=O)c2oc3ccccc3c2NC(=O)C2CCCCC2)c1`, the “activity change, negative = inhibition” value is inactive: -8.49%.

On to `COc1ccc(C(=O)/C=C/c2cn(CC(O)CN3CCc4ccccc43)c3ccccc23)cc1` (configuration not stated), for which the “activity change, negative = inhibition” value is inactive: -19.1%.

As to `COC(=O)c1cc(NC(=O)c2cc3sccc3n2Cc2ccc(Cl)cc2)cc(C(=O)OC)c1`, the “activity change, negative = inhibition” value was inactive: -13.9%.

Consider `O=C1NC(NS(=O)(=O)c2ccccc2)(C(F)(F)F)C(=O)N1c1ccc(F)cc1` (configuration not stated), for which the “activity change, negative = inhibition” value is inactive: -5.85%.

Regarding `Cc1cc(N2CCC(C(=O)N(CC(C)C)CC(C)C)CC2)n2nc(C)c(-c3ccc(Cl)cc3)c2n1`, the “activity change, negative = inhibition” value was inactive: -6.5%.

Turning to `O=C(c1cnn(-c2ccc(F)cc2)c1-n1cccc1)N1CCN(c2ccc(Cl)cc2)CC1`, the “activity change, negative = inhibition” value is inactive: -25.2%.

Consider `COc1ccccc1NC(=O)Cn1c(=O)c(CNc2ccccc2)cc2cc(OC)c(OC)cc21`, for which the “activity change, negative = inhibition” value is inactive: -1.56%.

Regarding `Fc1ccc(-n2ncc3c(Nc4cccc(Cl)c4)ncnc32)cc1`, the “activity change, negative = inhibition” value was inactive: -4.37%.

Regarding `Cc1cc(C)cc(OCc2cc(=O)n3c(-c4ccccc4)csc3n2)c1`, the “activity change, negative = inhibition” value is inactive: -1.36%.

As to `CSc1ncc(Cl)c(C(=O)N(Cc2ccc(C)cc2)C2CCS(=O)(=O)C2)n1` (configuration not stated), the “activity change, negative = inhibition” value is inactive: -5.76%.

As to `COc1ccccc1C1C=C(c2ccc(C(C)C)cc2)Nc2nnnn21` (configuration not stated), the activity change, negative = inhibition is inactive: -26.5% [at 11.5 µM].

Take `Cc1cccc(CNC(=O)c2ccc3c(c2)c(C)c(C)n3Cc2ccccc2)c1`: the “activity change, negative = inhibition” value is inactive: -19.2%.

Turning to `COc1cc(OC)cc(-c2nc3nc(C)c(CCC(=O)Nc4ccc(C)cc4C)c(C)n3n2)c1`, the “activity change, negative = inhibition” value is inactive: -20%.

Take `O=S(=O)(c1ccccc1)c1nnn2c1nc(NCc1ccc(Cl)cc1)c1sccc12`: the “activity change, negative = inhibition” value was inactive: 0.369%.

In the case of `O=C1CCc2cc(S(=O)(=O)NCc3ccccc3Cl)cc3c2N1CC3`, the “activity change, negative = inhibition” value is inactive: -4.15%.

Consider `CCN(CC)S(=O)(=O)c1ccc(C(=O)Nc2nc3ccc(Cl)cc3s2)cc1`, for which the “activity change, negative = inhibition” value was inactive: -18.9%.

In the case of `O=C(CCn1ccc2cc(S(=O)(=O)N3CCCC3)ccc21)NCc1ccccc1F`, the “activity change, negative = inhibition” value was inactive: -20.5%.

For the compound `Cc1ccc(S(=O)(=O)c2nnn3c2nc(NCc2cccs2)c2sccc23)cc1`, the “activity change, negative = inhibition” value is inactive: -11.1%.

Values taken from PubChem BioAssay AID1508623 (National Center for Advancing Translational Sciences (NCATS), 2021).
